# Source: PubChem BioAssay AID485313 (National Center for Advancing Translational Sciences (NCATS), 2010)
# About 7,600 (2.4%) of roughly 320,000 compounds were called active. Inconclusive means that the source gave no clear call. Such entries were picked first, then a sample of the others. Calls follow the shape of the dose curve; as a rule, active = well fitted activation curve with a large enough effect; inconclusive = small, poorly fitted or top-dose-only effect; inactive = no such curve, though single readings can be large or run the other way. No potency is given beside an inconclusive call; the fits are too rough.
# Assay: qHTS Assay for NPC1 Promoter Activators; also: nearly all actives have a fitted effect of over 60% in size; as to activation: % of control where 0% means no effect
# Conditions: Huh7 NPC1 promoter luciferase reporter, 24 h; series mostly up to 9.22 µM; activation: at the top concentration
# Method in brief: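 Luminescence read-out of NPC1 promoter-driven luciferase in stably transfected Huh7 cells; compounds delivered in DMSO and left 24 h at 37C, 5% CO2, qHTS titration format.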
# Potency is read from the fitted curve at half-maximal effect; tags tell the direction and shape of the fitted curve.
Compound,Potency,activation
O=C(Nc1ccccc1)OC1CC2CC1C1CCCC21 (stereo not given),"inconclusive [activator, partial curve]",–
COc1cc(/C=N/NC(=O)c2ccccn2)ccc1OC(=O)c1ccc(Br)cc1,"inconclusive [activator, partial curve]",–
CS(=O)(=O)N1CCN(C(=O)c2csc3ccccc23)CC1,–,inactive: 0.0315%
O=C(COCC(=O)NCc1ccccc1)NCc1ccccc1,–,inactive: 10.8%
O=S(=O)(c1ccc(Nc2ccc(-c3ccc4c(c3)OCCO4)nn2)cc1)N1CCCC1,–,inactive: 16.9%
COc1ccc(-c2csc(N3N=C(C)C(C)C3=O)n2)cc1 (stereo not given),"inconclusive [activator, partial curve]",–
COc1ccc(/C=C/C(=O)c2ccc3c(c2)OCO3)c(OC)c1,active: 3.16 µM,–
CSCC[C@H](NS(=O)(=O)c1ccc(C(C)=O)cc1)c1nnc2ccccn12,–,inactive: -4.72%
CCCOC(=O)CSc1nc(N2CCOCC2)c2c(c1C#N)CC(C)(C)OC2,–,inactive: 0.468%
O=C(N/N=C/c1ccc(Br)cc1)c1ccc(F)cc1,"inconclusive [activator, single point]",–
COc1ccc(/C=C(/NC(=O)c2ccc(OC)c(OC)c2)C(=O)NCCCn2ccnc2)cc1,–,inactive: -0.622%
COc1ccc(C2=NN(CN3C(=O)C(=O)c4ccccc43)C(c3ccc(OC)cc3)C2)cc1 (stereo not given),"inconclusive [activator, partial curve]",–
C=CCc1ccc(OCCOc2cccc3ccc(C)nc23)c(OC)c1,–,inactive: -2.34%
O=C(COc1ccc2c(c1)CCC2)Nc1ccccn1,active: 3.98 µM,–
O=C(CSc1nnc(-c2cccnc2)o1)Nc1cccc(F)c1,"inconclusive [activator, single point]",–
O=C(CSc1ccccc1)N1CCN(S(=O)(=O)c2ccccc2)CC1,"inconclusive [activator, single point]",–
Cc1cc(Nc2ccc(F)c(F)c2)nc(-c2ccccc2O)n1,–,inactive: -2.28%
C(=N\Nc1nc(-c2ccccc2)cs1)/c1cccs1,–,inactive: 20.9%
COCCNC(=O)c1ccc2c3n(nc2c1)-c1ccccc1CO3,active: 1.12 µM,–
COc1cc2c(cc1OC)C(COc1ccc([N+](=O)[O-])cc1)N(C(C)=O)CC2 (stereo not given),–,inactive: -14.8%
COc1ccc2nc(NC(=O)c3cc(C)oc3C)sc2c1,"inconclusive [activator, single point]",–
CN(C)S(=O)(=O)c1cccc(NC(=O)CSc2nc3ccccc3n2-c2ccccc2)c1,–,inactive: -3.7%
O=C(Nc1nnc(CC2=CCCCC2)s1)c1cccs1,"inconclusive [activator, single point]",–
Cc1ccc(C2NC(=O)NC3=C2CCc2ccccc23)cc1 (stereo not given),"inconclusive [activator, partial curve]",–
CN(Cc1ccon1)Cc1cn(C)nc1-c1cccc(Cl)c1,"inconclusive [activator, single point]",–
CC(Sc1nnc(Nc2ccccc2)s1)C(=O)Nc1nc(-c2ccccc2)cs1 (stereo not given),–,inactive: -1.73%
O=C(N/N=C/c1coc2ccc(Cl)cc2c1=O)c1ccc(O)cc1,–,inactive: -0.609%

Compound,Potency,activation
C(=N\NC1=Nc2cccc3cccc1c23)/c1cccnc1,active: 3.55 µM,–
Cn1c(C(=O)NCCC2=CCCCC2)cc2c(=O)n3ccccc3nc21,"inconclusive [activator, partial curve]",–
Cc1cc(-c2ccccc2)nc(N/N=C/c2ccccc2F)n1,"inconclusive [activator, single point]",–
CC1=NN(c2ccccc2)C(=O)C1N=Nc1ccccc1 (stereo not given),"inconclusive [activator, single point]",–
COc1ccc(/C(C)=N/Nc2ccc(C(=O)O)cc2)c(OC)c1,"inconclusive [activator, partial curve]",–
CC(C)(C)C1CCC(C(=O)OCC(=O)Nc2ccc3[nH]c(=O)[nH]c3c2)CC1 (stereo not given),–,inactive: -2.48%
c1ccc(Cc2nc(-c3ccccn3)no2)cc1,"inconclusive [activator, partial curve]",–
CCOc1ccc(NC(=O)NCc2cccn2C)cc1,"inconclusive [activator, single point]",–
COc1ccc(-c2noc(-c3ccc4c(c3)OCO4)n2)cc1,active: 0.794 µM,–
COc1ccc(CCNC(=O)C2CC(c3cccc([N+](=O)[O-])c3)=NO2)cc1 (stereo not given),"inconclusive [activator, single point]",–
O=S1(=O)CC2NC(=S)N(c3cccc(Br)c3)C2C1 (stereo not given),"inconclusive [activator, single point]",–
O=C(Nc1ccc(Cl)cc1)c1ccc2c(c1)OCO2,active: 0.398 µM,–
COc1ccc2nc(NC(=O)CSc3nc4ccccc4o3)sc2c1,"inconclusive [activator, partial curve]",–
COc1ccc(C(=O)Nc2ccccc2C(=O)Nc2cccc(C)n2)cc1,"inconclusive [activator, partial curve]",–
O=C(Cc1sc(Nc2ccccc2)nc1-c1ccccc1)NCc1ccccn1,"inconclusive [activator, single point]",–
Cc1ccc(S(=O)(=O)N2CCN(c3cnn(C)c(=O)c3Cl)CC2)cc1,"inconclusive [activator, single point]",–
Cc1ccc(-n2c(C)cc(C(=O)CSc3nnc4ccccn34)c2C)cc1,active: 0.891 µM,–
COc1ccc(-c2cc(C(=O)OCc3ccccn3)c3ccccc3n2)cc1,–,inactive: 10.7%
CCC1Oc2ccccc2N(CC(=O)NCCN2CCCC2)C1=O (stereo not given),–,inactive: 1.74%
COc1ccc(-c2nnc(NC(=O)C(C)C)s2)c(OC)c1,"inconclusive [activator, single point]",–
O=S(=O)(Nc1cccc(-c2ccc(N3CCCCCC3)nn2)c1)c1ccccc1Cl,–,inactive: 18.8%
N#Cc1cc2c(nc1SCC(=O)Nc1sc3c(c1C#N)CCC3)CCCC2,"inconclusive [activator, partial curve]",–
COc1ccccc1C(=O)CC(=O)c1ccccc1,"inconclusive [activator, partial curve]",–
CCCOc1ccc(-c2nnc(N)s2)cc1,"inconclusive [activator, partial curve]",–
O=c1cc(-c2cccs2)oc2ccc(Cl)cc12,active: 3.16 µM,–
O=C(Nc1ccc(-c2cn3c(n2)SCC3)cc1)c1ccc2ccccc2n1,–,inactive: 20.7%
O=C(Nc1ccc2oc(-c3ccc4ccccc4c3)nc2c1)c1ccc2c(c1)OCCO2,"inconclusive [activator, partial curve]",–

Compound,Potency,activation
Cn1c(OCc2cccnc2)nc2c1c(=O)n(Cc1ccc(Br)cc1)c(=O)n2C,–,inactive: 2.34%
CCCCOc1ccc(C2CC(=O)NC2=O)cc1 (stereo not given),"inconclusive [activator, partial curve]",–
O=c1cc2[nH]c3ccccc3c(=O)n2nc1-c1ccccc1,"inconclusive [activator, partial curve]",–
Cc1ccccc1NC(=O)CSc1nnc(-c2ccccn2)o1,–,inactive: 29.2%
C/C=C\C=C\C(=O)N1CC2(CC(c3cccc(NC(=O)CC)c3)=NO2)C[C@H]1C(N)=O (stereo not given in full),–,inactive: 0.519%
Cc1cccc(N=Nc2cnc(N)s2)c1,active: 3.16 µM,–
N#C/C(=C\c1cccc(O)c1)C(=O)Nc1ccc2c(c1)OCCO2,–,inactive: 1.33%
O=[N+]([O-])c1cc2c(cc1CN1CCN(c3ccccc3)CC1)OCO2,–,inactive: 19.9%
Cc1ccc(/C=N/NC(=O)c2cccs2)cc1[N+](=O)[O-],"inconclusive [activator, single point]",–
COc1ccc2nc(NC(=O)c3ccc(Br)s3)sc2c1,active: 3.98 µM,–
COCCCN1CN=C(Nc2nc3ccccc3o2)NC1,"inconclusive [activator, single point]",–
CC(C)OC(=O)c1cccc2c1C(=O)c1ccccc1-2,"inconclusive [activator, single point]",–
O=C(NCCO)c1cccc(Cl)c1,"inconclusive [activator, partial curve]",–
CC1CCC2(CC1)NC(=O)N(CC(=O)Nc1ccc3c(c1)OCCO3)C2=O (stereo not given),"inconclusive [activator, partial curve]",–
CC(C)(C)NC(=O)C(=O)NNC(=O)c1cccc(F)c1,"inconclusive [activator, single point]",–
COc1ccccc1/C=C/C(=O)Nc1ccc2c(c1)OCCO2,"inconclusive [activator, partial curve]",–
O=C(Nc1ccc2nc3n(c(=O)c2c1)CCCCC3)c1ccccn1,active: 1.58 µM,–
C/C(=N\N=c1/sc2ccccc2n1C)c1ccccn1,"inconclusive [activator, single point]",–
O=C(c1ccccc1F)N1CCc2ccccc21,–,inactive: -2.85%
CCN(CC)CCN(C(=O)c1cccc(N2C(=O)CCC2=O)c1)c1nc2cc3c(cc2s1)OCO3,–,inactive: -2.64%
O=C(/C=C/c1ccc(Br)o1)Nc1nccs1,active: 3.16 µM,–
O=C(NC1CC1)c1sc2ccccc2c1Cl,"inconclusive [activator, single point]",–
Cc1noc(C)c1C(=O)Nc1nc2ccc(Cl)cc2s1,"inconclusive [activator, single point]",–
CCCn1c2ccccc2c2cn[nH]c(=O)c21,–,inactive: 0.471%
COc1ccc2c(c1OC)C(=O)N(c1ccccn1)C2,active: 3.16 µM,–
Cc1[nH]cnc1C(=O)N/N=C/c1c(Cl)cccc1Cl,"inconclusive [activator, partial curve]",–
